Reference: PubChem BioAssay AID1745853 (National Center for Advancing Translational Sciences (NCATS), 2022)
The list shows a part of the results. Shown are side measurements of this screen, not its main read-out; they come without a call.

Assays:
Assay in all cases: Primary Screen for Target Class Profiling of Small Molecule Inhibitors of Methyltransferases
[1] = biological target: Glycine N-methyltransferase (Homo sapiens) (UniProt Q14749); settings: purified enzyme, MTase-Glo SAH luminescence; measured here: GNMT inhibition; at 40 µM; stronger effect = lower value
In short: (§1)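 Each enzyme was assayed with SAM and its substrate. SAH formation detected by MTase-Glo luminescence; single-point 40 uM screen[…].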

[2] = biological target: Guanidinoacetate N-methyltransferase (Homo sapiens) (UniProt Q14353); settings: purified enzyme, MTase-Glo SAH luminescence; measured here: GAMT inhibition; at 40 µM; stronger effect = lower value
In short: as §1

[3] = biological target: Histamine N-methyltransferase (Homo sapiens) (UniProt P50135); settings: purified enzyme, MTase-Glo SAH luminescence; measured here: HNMT inhibition; at 40 µM; stronger effect = lower value
In short: as §1

[4] = biological target: Nicotinamide N-methyltransferase (Homo sapiens) (UniProt P40261); settings: purified enzyme, MTase-Glo SAH luminescence; measured here: NNMT inhibition; at 40 µM; stronger effect = lower value
In short: as §1

[5] = biological target: Phenylethanolamine N-methyltransferase (Homo sapiens) (UniProt P11086); settings: purified enzyme, MTase-Glo SAH luminescence; measured here: PNMT inhibition; at 40 µM; stronger effect = lower value
In short: as §1
% is set by controls: 0 for no effect and ±100 for the full control effect.

SMILES	activity change, negative = inhibition [1] [%]	activity change, negative = inhibition [2] [%]	activity change, negative = inhibition [3] [%]	activity change, negative = inhibition [4] [%]	activity change, negative = inhibition [5] [%]
Fc1cccc2c1NC(c1ccc(Br)cc1)C1CC=CC21 (stereo not given)	-7.6	3.18	0.244	-10.8	-2.03
CCOc1cccc(-c2nc(C(=O)Nc3ccc(F)cc3)cs2)c1	-3.84	-1.95	-2.17	-5.07	-8.87
Cc1ccc(CNC(=O)Cn2ccc3cc(S(=O)(=O)N4CCCCC4)ccc32)cc1	1.8	0.218	4.07	-0.182	0.479
COc1ccc(OC)c(NS(=O)(=O)c2cc3c(cc2C)n(C)c(=O)n3C)c1	-0.602	1.66	-1.04	-4.43	1.92
C=CCN1CC2(CCC1=O)CCN(C(=O)CC(C)n1ccnc1C)CC2 (stereo not given)	-2.33	-2.84	-3.9	-4.94	1.03
CCc1cc2c(cc3n2CC(C)(C(=O)NC2CCCCC2)N(CCN2CCOCC2)C3=O)s1 (stereo not given)	-2.96	1.45	-2.33	-5.82	0.432
CCc1ccc(N2C(=O)c3c(C(=O)OC)ncn3CC2(C)C(=O)NCCCOC(C)C)cc1 (stereo not given)	1.47	2.42	15.8	9.86	10.2
CSCC[C@H](N)C(=O)N1CCC2(CCC(=O)N(Cc3ccccc3)C2)CC1	-5.56	-1.13	-0.749	-8.56	1.68
CCN1C(=O)c2cc(C(=O)NCCc3cccs3)nn2CC1(C)C(=O)NC1CCCC1 (stereo not given)	4.68	4.66	-1.69	4.33	3.2
Cc1noc(-c2ccc(-c3ccc(CC(=O)O)cc3)cc2)c1NC(=O)O[C@H](C)c1ccccc1Cl	-8.73	13.8	4.77	-22.1	1.12
CC(C)C(=O)c1c(C(C)C)nn2ccccc12	-1.38	12	2.57	-4.59	7.15
Cn1cccc1C(=O)N1CC[C@H](CO)[C@H](NC(=O)C2CC2)C1	-6.84	-9.94	-5.16	-16.1	-9.7
CC1(C)CC(=O)N(CCCCN2CCN(c3ncccn3)CC2)C(=O)C1	2.41	4.3	11.2	-10.2	3.56
Cc1ccc(NC(=O)CSc2nnc3n(CC(C)C)c(=O)c4ccc(Cl)cc4n23)c(Cl)c1	-6.47	0	4.5	-9.73	-2.12
O=C(CCn1ccc2cc(S(=O)(=O)N3CCCCC3)ccc21)N1CCN(c2ccccc2)CC1	-1.13	3.35	-4.69	-1.98	-0.443
CC1(C(=O)NC2CCCCCC2)Cn2c(nc3ccccc32)C(=O)N1CCN1CCOCC1 (stereo not given)	2.61	0.562	5.1	5.94	0.1
Cc1ccccc1NC(=O)CSc1nnc2n(Cc3ccccc3)c(=O)c3ccccc3n12	-8.09	-3.64	2.16	-10.5	-3.45
CCOC(=O)c1ccc(NS(=O)(=O)c2ccc3[nH]c4c(c3c2)CCCC4)cc1	-1.7	4.88	-0.985	-6.36	0.384
CC(C(=O)NCc1ccccc1F)n1ccc2cc(S(=O)(=O)N3CCCC3)ccc21 (stereo not given)	0.778	3.43	-1.13	-8.88	-3.52
CC(C(=O)NCc1ccco1)n1ccc2cc(S(=O)(=O)N3CCCC3)ccc21 (stereo not given)	4.21	1.35	3.8	5.4	1.99

SMILES	activity change, negative = inhibition [1] [%]	activity change, negative = inhibition [2] [%]	activity change, negative = inhibition [3] [%]	activity change, negative = inhibition [4] [%]	activity change, negative = inhibition [5] [%]
CC(C)C[C@@H]1NC(=O)[C@@H]2C[C@@]34C[C@@H]5[C@@]6(C)CCCC(C)(C)C6CC[C@@]5(C)N(c5ccccc53)[C@H]4N2C1=O (stereo not given in full)	4.26	8.85	7.2	-28.2	-0.832
COc1ccc(-c2cc3n(n2)CC(C)(C(=O)NCc2ccccc2OC)N(Cc2ccccc2C)C3=O)cc1 (stereo not given)	-0.017	3.6	0.335	-1.22	-2.08
CCOCCCNC(=O)c1cc2n(n1)CC(C)(C(=O)NCc1ccccc1)N(C)C2=O (stereo not given)	2.44	-10.8	5.57	-0.466	-2.6
Nc1nc(N)c2nc(-c3ccccc3)c(N)nc2n1	-12.2	-1.5	-4.97	-10.5	-1.2
C[S+](=O)([O-])N1CCC(Cn2ccc3c(N4CCOCC4)nc(-c4cccc5[nH]ncc45)cc32)CC1	-63.2	-45.4	-27.1	-21.9	-74
CC(C)c1noc(-c2cn(C3CCN(C(=O)COc4ccccc4)CC3)nn2)n1	-6.26	-10.4	-3.21	-15	-20.1
O=c1c2c(CO)c(-c3ccccc3)nn2ccn1CCOc1ccccc1	-10.8	-17.4	-8.33	-10.2	-11.6
COc1ccccc1N1CCN(C(=O)CCc2nnc3n(CCc4ccccc4)c(=O)c4ccccc4n23)CC1	-4.59	0	-1.42	-7.42	-4.28
O=C1c2cncnc2OCC(CNC(=O)C2(c3ccccc3)CC2)N1Cc1ccccc1 (stereo not given)	-8.16	1.17	-5.1	-20	-4.12
CC(C)=CCC[C@](C)(O[C@@H]1O[C@H](CO[C@@H]2OC[C@@H](O)[C@H](O)[C@H]2O)[C@@H](O)[C@H](O)[C@H]1O)[C@H]1CC[C@]2(C)[C@@H]1[C@H](O)C[C@@H]1[C@@]3(C)CC[C@H](O[C@@H]4O[C@H](CO)[C@@H](O)[C@H](O)[C@H]4O[C@@H]4O[C@H](CO)[C@@H](O)[C@H](O)[C@H]4O)C(C)(C)[C@@H]3CC[C@]12C	0.168	17.5	13	7.62	8.95
CC(C)(O)CCc1cccc(C(=O)NCCCc2ccccn2)c1	-3.13	-0.996	-0.201	-5.9	-1.76
CCCC1c2cccn2CCN1C(=O)Nc1cc(C)ccc1C (stereo not given)	-6.46	3.54	-22.2	-4.09	-2.6
Cc1ccc(C)c(C(=O)Cn2nc3n(CC(C)C)c(=O)c4ccccc4n3c2=O)c1	-0.202	4.99	3.67	-5.36	0.381
O=C(N[C@H]1CCN2C(=O)c3cc(/C=C/c4ccccc4)ccc3NC(=O)[C@H]12)C1CCCC1	-11.4	-11.1	-4.91	-24	-14.7
COc1ccc(-c2cc3n(n2)CC(C)(C(=O)NCc2ccccc2)N(Cc2cc(OC)ccc2OC)C3=O)cc1 (stereo not given)	8.04	0	9.63	5.32	2.12
CN(CC1CCOCC1)S(=O)(=O)c1ccc(Cl)cc1	-2.56	-6.25	0.54	-10.4	-3.08
CC(C)CNC(=O)c1ccc2c(=O)n(CC(C)C)c3nnc(SCC(=O)c4ccccc4)n3c2c1	8.88	2.01	10.8	8.26	8.75
CN1CCC(N2CC[C@H](c3nc4ccc(C(F)(F)F)cc4[nH]3)C2)CC1	-7.32	-8.07	-76.2	-10.8	2.78
O=C1NCCCCCCN(S(=O)(=O)Cc2ccccc2F)[C@H]2CCC[C@@H]12	-7.42	-8.03	-4.69	-13.6	-6.11
CCCN1CC2(CCN(C)CC2)CC1C(=O)N(C)Cc1ccn[nH]1 (stereo not given)	-0.975	2.44	2.07	-2.96	0.969

SMILES	activity change, negative = inhibition [1] [%]	activity change, negative = inhibition [2] [%]	activity change, negative = inhibition [3] [%]	activity change, negative = inhibition [4] [%]	activity change, negative = inhibition [5] [%]
CC(CCC(=O)N1CCn2nc(Cc3ccccc3)cc2C1)N1CCCC1 (stereo not given)	-1.92	-0.956	-5.29	-2.43	0.327
O=C(c1cccnc1)N1C[C@@H]2OCC(=O)N(c3ccccc3)[C@@H]2C1	-3.28	-6.12	-9.22	-11.4	-15.3
O=C(CCn1ccc2cc(S(=O)(=O)N3CCCCC3)ccc21)N1CCCCC1	2.19	0	-0.893	0.571	-1.19
CC(=O)c1c(C)cc2cccc(O)c2c1O[C@@H]1O[C@H](CO)[C@@H](O)[C@H](O)[C@H]1O	0	-8.59	2.63	-15.3	-45
CC(=O)O[C@H]1C[C@@]2(C)[C@@H](CC[C@H]3[C@@]4(C)C=CC(=O)[C@@H](C)[C@@H]4[C@H](OC(C)=O)C(=O)[C@@]32C)/C1=C(\CCC=C(C)C)C(=O)O	3.38	2.36	4.42	-11.4	0.726
Cc1ccccc1NC(=O)Cn1nc2n(CCC(C)C)c(=O)c3ccc(C(=O)NC(C)C)cc3n2c1=O	5.6	0	3.46	0.831	2.81
Cc1noc(C)c1C(=O)N[C@@H]1CN(c2ncccn2)C[C@H]1CN(C)C	-3.17	-3.89	-2.08	-13.7	8.48
CC1CCCN(c2nc3c(-c4ccccc4)nnn3c3ccccc23)C1 (stereo not given)	-6.81	0.646	-3.03	-7.19	-19.2
CC(=O)Nc1c2n(c3ccccc13)CC(C)(C(=O)NCCC(C)C)N(Cc1ccccc1Cl)C2=O (stereo not given)	-4.85	4.79	-2.48	-4.59	-0.211
CCCC1c2cccn2CCN1C(=O)Nc1ccc(F)c(Cl)c1 (stereo not given)	-3.17	2.04	-24.9	-4.78	0.326
Cc1ccc(CN2C(=O)c3ccc(-c4ccco4)n3CC2(C)C(=O)NC2CCCCCC2)cc1 (stereo not given)	-18.9	1.05	-11.4	-16.4	-4.84
Cc1ccc([S+](=O)([O-])NC2CCN(CCn3nc4n(c3=O)CCCC4)C2)cc1 (stereo not given)	-18.2	0.534	-3.64	-8.92	-5.98
CCCn1c(=O)c2ccccc2n2c(SCC(=O)NC(C)CC)nnc12 (stereo not given)	5.9	3.9	9.36	7.66	4.8
COc1ccccc1CN1C(=O)c2ccc(-c3ccco3)n2CC1(C)C(=O)NC1CCCCC1 (stereo not given)	-7.47	0	4.08	1.98	-2.37
CCCCCNc1nc2c(-c3ccc(F)cc3)nnn2c2ccccc12	-0.574	0	-1.91	-1.31	-2.75
CCc1cc2c(cc3n2CC(C)(C(=O)NC2CCC(C)CC2)N(CCN2CCCCCC2)C3=O)s1 (stereo not given)	-6.07	1.77	-10.8	-9.28	-5.77
CCOc1ccccc1NS(=O)(=O)c1ccc2c(c1)NC(=O)CC(=O)N2	4.41	0	8.78	13.6	0.794
CCc1cc2c(cc3n2CC(C(=O)NC2CCCCC2)(c2ccccc2)N(Cc2ccccc2Cl)C3=O)s1 (stereo not given)	2.33	-20.3	2.77	0.679	-6.7
